In the RNAGym collection of RNA variant scans (doi:10.1101/gad.245936.114):
This sample is rich in variants without activity.

B1: tRNA (parent)
chain: CUCUCGGUAGCCAAGUUGGUUUAAGGCGCAAGACUUUAAUUUAUCACUACGAAAUCUUGAGAUCGGGCGUUCGACUCGCCCCCGGGAGAUUUUUUCCUCGAGCAA

Variants of: B1
Test: nonsense suppression (GFP-seq) (ratio to wild type); higher = more function; SUP4oc tRNA, yeast GFP reporter sort-seq
How it was run: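 Raffinose/galactose medium with 80 mg/L adenine was used to grow yeast carrying genome-integrated tRNA variants (~3% random-mutation library), RFP, and a galactose-driven GFP ochre reporter. Cells went into GFP/RFP bins, which were Illumina-sequenced, and variants with ≥100 reads and ≥30 cells were scored. Nonsense suppression (GFPSEQ) is the per-bin median GFP/RFP weighted by estimated cell share and expressed relative to the unmutated parent tRNA.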

Nonsense suppression, ≤ 0.026:
CUCUCGGUAGCCAAGUUGCUUUAAGGCGCAAGACUUUAAUUUAUCACUACGAAAUCUUUAGAUCGGGCGUUCGACUCGCCCCCGCGAGAUUUUUUCCUCGAGCAA [G19C G59U G85C]
CUCUCGGUAGCCAAGUUGCUUUAAGGCGCAAGACUUUAAUUUAUCACUACGAAAUCUUAAUAUCGGGCUUUCGACUCGCCCCCGGGAGGUUUUUUCCUCGAGCAA [G19C G59A G61U G69U A89G]
CUCUCGGUAGCCAAGUUGCUUUAAGGCGCAAGACUUUAAUUUAUCACUACGAAAUCUUGAGAUCGAGCGUUCGACUCGCCCCCGGAAGAUUUUUUCCUCGAGCAA [G19C G66A G86A]
CUCUCGGUAGCCAAGUUGCUUUAAGGCGCAAGACUUUAAUUUAUCACUACGAAAUCUUGAGAUCGGGCGUUCGACCCGCCCCCGGGACAUUUUUUCCUCGAGCAA [G19C U76C G88C]
CUCUCGGUAGCCAAGUUGUUUUAAGGCGCAAGAAUUUAAUUUAUCACUACGAAUUCUUGAGAUCGGGCGUUCGACUCGCCCCCGGGAGAUUUUUUCCUCGAGCAA [G19U C34A A54U]
CUCUCGGUAGCCAAGUUGUUUUAAGGCGCAAGACUUUAAUUUAUCACUACGAAAUCUUGAGAUCGGGCGUUCGACUCGCCCCCGGGCGAUUUUUUCCUCGAGCAA [G19U A87C]
CUCUCGGUAGCCAAGUUGUUUUAAGGCGCAAGACUUUAAUUUAUCACUACGAAAUCUUGAGAUCGGGCGUUAGACUCGCCCCCGGGACAUUUUUUCCUCGAGCAA [G19U C72A G88C]
CUCUCGGUAGCCAAGUUGUUUUAUGGCGCAAGAUUUUAAUUUAUCACUACGAAAUCUUGAGAGCGGGCGUUCGACUCGCCCCCGGGAGAUUUUUUCCUCGAGCAA [G19U A24U C34U U63G]
CUCUCGGUAGCCAAGUUGUUUUAAGGCGCAAGACUUUAAUUUAUCACUACGAAAUAUUGAGAUCGGGCGUUCGACUCGCCCCCGGGAGAUUUUUUCCUCGAGCAA [G19U C56A]
CUCUCGGUAGCCAAGUUGCUUUAAGGCGCAAGACUUUAAUUUAUCACUACGAAAUCUUGAGAUCGGCCGUUCGACUCGCCCCCGGGAGAUUUUUUCCUCGAGCAA [G19C G67C]
CUCUCGGUAGCCAAGUUGUUUUGAGGCGCAAGACUUUAAUUUAUCACUACGAAAUCUUGAGAUCGGGCGUUCGACUCGCCCCCGGGAGAUUUUUUCCUCGAGCAA [G19U A23G]
CUCUCGGUAGCCAAGUUGCUUUAAGGCGCAAGACUUUAAUUUAUCACUACGAAAUCUUGAGAACGGGCGUUCGACUCGCCCCCGGGAGAUUUUUUCCUCGAGCAA [G19C U63A]
CUCUCGGUAGCCAAGUUGUUUUAAGGCGCAAGACUUUAAUUUAUCACUACGAAAUCUUGAGAUUCGGCGUUCGACUCGCCCCCGGGAGAUUUUUUCCUCGAGCAA [G19U C64U G65C]
CUCUCGGUAGCCAAGUUGCUUUAAGGCGCAAGACUUUAAUUUAUCACUACGAAAUCUUCAGACCGGGCGUUCGACUCGCCCCCGGGAGAUUUUUUCCUCGAGCAA [G19C G59C U63C]
CUCUCGGUAGCCAAGUUGUUUUAAGGCGUAAGACUUUAAUUUAUCACUACGAAAUCUUGAGAUCGGGCGUUGGACUCGCCCCCGGGAGGUUUUUUCCUCGAGCAA [G19U C29U C72G A89G]
CUCUCGGUAGCCAAGUUGCUUUAAGGCGCAAGACUUUAAUUUAUCACUACGAAAUCUUGAGAUCGUGCGUUCGACUCGCCCCCGGCAGAUUUUUUCCUCGAGCAA [G19C G66U G86C]
CUCUCGGUAGCCAAGUUGUUUUAAGGCGCAGGUCUUUAAUUUAUCACUACGAAAUCUUGAGAUCGGGCCUUCGACUCGCCCCCGGGAGAUUUUUUCCUCGAGCAA [G19U A31G A33U G69C]
CUCUCGGUAGCCAAGUUGCUUUAAGGCGCAAGACUUUAAUUUAUCACUACGAAAUCUUGAGAUCAGGCGUGCGACUCGCCCCCGGGAGAUUUUUUCCUCGAGCAA [G19C G65A U71G]
CUCUCGGUAGCCAAGUUGUUUUAAGGCGCAAGACUUUAAUUUAUCACUACGAAAUCUUGAGCUCGGGGGUUCGACUCGCCCCCGGGAGAUUUUUUCCUCGAGCAA [G19U A62C C68G]
CUCUCGGUAGCCAAGUUGUUUUAAGGCGCAAGACUUUAAUUUAUCACUACGAAAUCUUGAGUUCAGGCGUUCGACUCGCCCCCGGGCGAUUUUUUCCUCGAGCAA [G19U A62U G65A A87C]
CUCUCGGUAGCCAAGUUGCUUCAAGGCGCAAGACUUUAAUUUAUCACUACGAAAUCUUGAGAUCGGGCGUUCGACUCCCCCCCGGGAGAUUUUUUCCUCGAGCAA [G19C U22C G78C]
CUCUCGGUAGCCAAGUUGCUUCAAGGCGCAAGACUUUAAUUUAUCACUACGAAAUCUUGAGAUCGGGUGUUCGACUCGCCCCCGGGAGAUUUUUUCCUCGAGCAA [G19C U22C C68U]
CUCUCGGUAGCCAAGUUGUUUUAAGGCGCAAGACUUUAAUUUAUCACUACGAAAUGUCGAGAUCGGGCGUUCGACUCGCCCCCGGGAGAUUUUUUCCUCGAGCAA [G19U C56G U58C]
CUCUCGGUAGCCAAGUUGUUUUAAGGCGCCAGACUUUAAUUUAUCACUACGAAAUCUUGAGAUCGGGCGUUGGACUCGCCCCCGGGAGAUUUUUUCCUCGAGCAA [G19U A30C C72G]
CUCUCGGUAGCCAAGUUGUUUUAAGGCGCAAGACUUUAAUUUAUCACUACGAAAUCUUGAGAUCGGGCGUUCGGCUCGCCCCCGGGAGAUUUUUUCCUCGAGCAA [G19U A74G]
CUCUCGGUAGCCAAGUUGUUUUAAGGCGCAAGAGUUUAAUUUAUCACUACGAAAUCUUGAGAUCGGGUGUUCAACUCGCCCCCGGGAGCUUUUUUCCUCGAGCAA [G19U C34G C68U G73A A89C]
CUCUCGGUAGCCAAGUUGUUUUUAGGCGCAAGAAUUUAAUUUAUCACUACGAAAUCUUGAGAGCGGGCGUUCGACUCGCCCCCGGGAGAUUUUUUCCUCGAGCAA [G19U A23U C34A U63G]
CUCUCGGUAGCCAAGUUGUUUUAAGGCGCAAGACUUUAAUUUAUCACUACGAAAUCUUGAGAUCGGGCGUUAGACUCGCCCCCGGGAGAUUUUUUCCUCGAGCAA [G19U C72A]
CUCUCGGUAGCCAAGUUGUUUUAAGGCGCAAGACUUUAAUUUAUCACUACGAAAUCUUGAGAUCGGGCGUUCGAUUCGCCCUCGGGAGAUUUUUUCCUCGAGCAA [G19U C75U C82U]
CUCUCGGUAGCCAAGUUGUUUUAAGGCGCAGGACUUUAAUUUAUCACUACGAAAUCUUGAGAUCGGGCGUUCGACUCGCCCCCGGGAGAUUUUUUCCUCGAGCAA [G19U A31G]
CUCUCGGUAGCCAAGUUGCUUUAAAGCGCAAAACUUUAAUUUAUCACUACGAAAUCUUGAGAUCGGGCGUUCGACUCGCCCCCGGGAGAUUUUUUCCUCGAGCAA [G19C G25A G32A]
CUCUCGGUAGCCAAGUUGUUUUAAGGCGAAAGACUUUAAUUUAUCACUACGAAAUCUUGAGACCGGGCGUUGGACUCGCCCCCGGGAGAUUUUUUCCUCGAGCAA [G19U C29A U63C C72G]
CUCUCGGUAGCCAAGUUGUUUUAAGGUGCAAGACUUUAAUUUAUCACUACGAAAUCUUGAGAUCGGGCGUUCGACUCGCCCCCGGGAGAUUUUUUCCUCGAGCAA [G19U C27U]
CUCUCGGUAGCCAAGUUGCUUUAAGGCGCAACACUUUAAUUUAUCACUACGAAAUCUUGAGAUCGGGCGUUCGACUCGCCCCCGGGAGAUUUUUUCCUCGAGCAA [G19C G32C]
CUCUCGGUAGCCAAGUUGCUUUAAGGCGCAAGACUUUAAUUUAUCACUACGAAAUCGUGAGAUCGGGCGUUCGACUCGCCCCCGGGAGAUUUUUUCCUCGAGCAA [G19C U57G]
CUCUCGGUAGCCAAGUUGCUUUAAGGCGCAAGACUUUAAUUUAUCACUACGAAAUCAUGAGAUCGGGCGUUCGACUCGCCCCCGGGAGAUUUUUUCCUCGAGCAA [G19C U57A]
CUCUCGGUAGCCAAGUUGCUUUAAGGCGCAAGACUUUAAUUUAUCACUACGAAAUCUUGAGAUCGGGCGUUCGACUCCCCCCCGGGAGAUUUUUUCCUCGAGCAA [G19C G78C]
CUCUCGGUAGCCAAGUUGUUUUACGGCGCAAGACUUUAAUUUAUCACUACGAAAUCUUGAGAUCAGGCGUUCGACUCGCCCCCGGGAGAUUUUUUCCUCGAGCAA [G19U A24C G65A]
CUCUCGGUAGCCAAGUUGCUUUAAGGCGCAAGACUUUAAUUUAUCACUACGAAAUCGUGAGAUCGCGCGUUAGACUCGCCCCCGGGAGAUUUUUUCCUCGAGCAA [G19C U57G G66C C72A]
CUCUCGGUAGCCAAGUUGUUUUAAGGCGCAAGACUUUAAUUUAUCACUACGAAAUCUUGAGAUCGGGCGUUCGACUUGCCCCCGUGAGAUUUUUUCCUCGAGCAA [G19U C77U G85U]
CUCUCGGUAGCCAAGUUGUUUUAAGGCGCAAGACUUUAAUUUAUCACUACGAACUCUUGAGAUCGGGCGUUCGACUCGCCCCCGGGAGAUUUUUUCCUCGAGCAA [G19U A54C]
CUCUCGGUAGCCAAGUUGUUUUAAGGCGCAAGACUUUAAUUUAUCACUACGAAGUCUUGAGAUCGGGCGUUCGACUCGCCCCCGGGAGAUUUUUUCCUCGAGCAA [G19U A54G]
CUCUCGGUAGCCAAGUUGUUUUAAGGCGCAAGUCUUUAAUUUAUCACUACGAAAUCUUGAGAUCGGGCGUUCGACUCGCCCCCGGGAGAUUUUUUCCUCGAGCAA [G19U A33U]
CUCUCGGUAGCCAAGUUGCUUUAAGGCGCAAGACUUUAAUUUAUCACUACGAAAGCUAGAGAUCGGGCGUUCGACUCGCCCCCGGGAGAUUUUUUCCUCGAGCAA [G19C U55G U58A]
CUCUCGGUAGCCAAGUUGCUUUAAGGCGCAAGACUUUAAUUUAUCACUACGAAAUCGUGAGAUCGAGCGUUCGACUCGCCCCCGGGAGAUUUUUUCCUCGAGCAA [G19C U57G G66A]
CUCUCGGUAGCCAAGUUGCUUUAAGGCGCAAGACUUUAAUUUAUCACUACGAAAUCUUCAGAUCGCGCGUUCGACUCGCCCCCGGGAGAUUUUUUCCUCGAGCAA [G19C G59C G66C]
CUCUCGGUAGCCAAGUUGUUUUAAGGCGCCAGACUUUAAUUUAUCACUACGAAAUCUUGAGAUCGGGCGUUCGACUCGCCCCCGGGAGAUUUUUUCCUCGAGCAA [G19U A30C]
CUCUCGGUAGCCAAGUUGUUUUAAGGCGCAAGCCUUUAAUUUAUCACUACGAAAUACUGAGAUAGGGCGUUCGAAUCGCCCCCGGGAGAUUUUUUCCUCGAGCAA [G19U A33C C56A U57C C64A C75A]
CUCUCGGUAGCCAAGUUGCUUUAAGGCGCAAGACUUUAAUUUAUCACUACGAAAUCUUGAGAUCGGGCGUUCGACGCGCCCCCGGCAGAUUUUUUCCUCGAGCAA [G19C U76G G86C]
CUCUCGGUAGCCAAGUUGCUUUAAGGCGCAAGACUUUAAUUUAUCACUACGAAAUCUUCAGAUCGGGCGUGCGACUCGCCCCCGGGAGAUUUUUUCCUCGAGCAA [G19C G59C U71G]
CUCUCGGUAGCCAAGUUGCUAUAAGGCGCAAGACUUUAAUUUAUCACUACGAAAUCUUGAGACCGGGCGUUCGACUCGCCCCCGGGAGAUUUUUUCCUCGAGCAA [G19C U21A U63C]
CUCUCGGUAGCCAAGUUGCUUUAAGGCGCAAGACUUUAAUUUAUCACUACGAAAUCUUGAGAUCGCGCGUUCGACUCGCCCCCGGGAGAUUUUUUCCUCGAGCAA [G19C G66C]
CUCUCGGUAGCCAAGUUGCUUUAAGGCGCAAGACUUUAAUUUAUCACUACGAAAUCUUGAGAUCGAGCGUUCGACUCGCCCCCGGGAGAUUUUUUCCUCGAGCAA [G19C G66A]
CUCUCGGUAGCCAAGUUGCUUUAAGGCGCAAGACUUUAAUUUAUCACUACGAAAUCUUUAGAUCGGGCGUUAGACUCGCCCCCGGGAGAUUUUUUCCUCGAGCAA [G19C G59U C72A]
